# Assay results: PubChem BioAssay (NCATS)
# Several values for one entry are separate records, joined by “and”; a condition that tells them apart may be missing. Equal values may be shown once. The list shows a part of the results. The main result of the screen is listed elsewhere. These columns were measured beside it and carry no call. Most of these compounds were active or inconclusive in the main read-out, so they are no random draw. Potencies come from curve fits of mixed quality, noted in brackets.
# Assay: qHTS Assay for Lipid Storage Modulators (AID 1519)
# Settings: Drosophila S3 cells, BODIPY lipid droplet/cell ratio, laser cytometry; measured here: lipid (BODIPY) channel AC50; cells loaded with oleic acid
# How it was run: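 Cells seeded at 5,000 per well were treated with compounds over a concentration series and loaded with oleic acid (400 uM, as added). Lipid droplet fluorescence (488 nm excitation, 500-530 nm channel) was read by laser-scanning cytometry and normalized to 20 uM Triacsin C.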
# Tags describe the fitted curve by direction and shape.
row,SMILES,AC50
1,Nc1ccc(S(=O)(=O)c2ccc(N)cc2)cc1,"39.8 µM [rising, single point]"
2,c1ccc(CNc2ncncc2-c2ccc3c(c2)OCO3)cc1,"1.58 µM [rising, partial curve]"
3,c1ccc(-c2ccc(N3CCCC4(CCNCC4)C3)cc2)cc1,"0.447 µM [rising, partial curve, poor fit]"
4,CCOc1ccc(NC(C)=O)cc1,"39.8 µM [rising, single point]"
5,O=c1ccc2ccccc2o1,"35.5 µM [rising, single point]"
6,N#Cc1cccc(NC(=O)N2CCCC3(CCN(C(=O)c4csnn4)CC3)C2)c1,"0.00562 µM [rising, full curve, poor fit]"
7,COc1cccc(-c2nccc(NCc3cccs3)n2)c1,"0.708 µM [rising, full curve]"
8,CSc1ccc2c(c1)[C@H](N1CCN(C)CC1)Cc1ccccc1S2,"12.6 µM [rising, partial curve, poor fit]"
9,COc1cccc(-c2ccc3ncnc(NCc4ccc(OC)cc4OC)c3c2)c1,"2.24 µM [rising, single point]"
10,CC(C)=CCC/C(C)=C/CC/C(C)=C/CO,"35.5 µM [rising, partial curve] and 12.6 µM [rising, full curve, poor fit]"
11,O=C(c1cccc(F)c1)N1CCC2(CC1)CCN(c1ccccn1)CC2,"1 µM [rising, full curve, poor fit]"

# Same assay, conditions: Drosophila S3 cells, BODIPY lipid droplet/cell ratio, laser cytometry; measured here: lipid channel max response; cells loaded with oleic acid
row,SMILES,max response
1,CN1CCN(C2=Cc3ccccc3Oc3ccc(Cl)cc32)CC1,61.4%
2,CN(C)Cc1ccccc1-c1nc(NC2CC2)c2ccccc2n1,20.7%
3,O=C(/C=C/C=C/c1ccc2c(c1)OCO2)N1CCCCC1,48.4%
4,O[C@H](CN1CCN(c2cccc(Cl)c2)CC1)C(c1ccccc1)c1ccccc1,67.2%
5,COc1cccc(Cn2c(=O)c(-c3cccs3)nc3cnc(Nc4ccccc4)nc32)c1,-57%
6,N[C@@H](Cc1ccccc1)C(=O)O,31.1%
7,c1ccc(N2CCN(CCCOc3ccc4c(c3)OCO4)CC2)cc1,149%
8,Cc1nc2cnc(OCc3ccccc3)nc2n(CCc2ccccc2)c1=O,10%
9,COc1cccc(Cn2c(=O)c(-c3ccccc3)nc3cnc(N(C)C)nc32)c1,1.38%
10,COc1ccc(CNc2nc(-c3ccccc3CN(C)C)nc3ccccc23)c(OC)c1,-40.9%
11,COC(=O)N1CCC2(CCN(C(=O)Nc3ccc(OC)cc3)CC2)CC1,26%
12,O=C(Nc1ccccc1)N1CCCC2(CCN(C(=O)c3cccc(F)c3)CC2)C1,30.3%
13,c1cc2c3c(c1)c1c(n3CCNC2)CCCC1,136%
14,Cc1cccc(CNc2cc(-c3ccccc3C)ncn2)c1,-35.2%
15,CC(=O)Oc1cc(C(F)(F)F)ccc1C(=O)O,-1.4%
16,O=C(c1ccco1)N1CCC2(CCN(Cc3cc(C(F)(F)F)cc(C(F)(F)F)c3)CC2)CC1,15.1%
17,COC(=O)N1CCC2(CCCN(C(=O)Nc3ccccc3)C2)CC1,12.1%

row,SMILES,max response
1,Cn1cccc1C(=O)N1CCC2(CCCN(c3ncccn3)C2)CC1,26.8%
2,COc1cccc(NC(=O)/C=C\c2ccc(Cl)cc2)c1,52%
3,CC(=O)O[C@H]1C(=O)[C@@]2(C)[C@H]([C@H](OC(=O)c3ccccc3)[C@]3(O)C[C@H](OC(=O)[C@H](O)[C@@H](NC(=O)c4ccccc4)c4ccccc4)C(C)=C1C3(C)C)[C@]1(OC(C)=O)CO[C@@H]1C[C@@H]2O,-38.9%
4,COc1cc(C=O)ccc1O,10.7%
5,COc1ccc(CNc2ccnc(-c3ccccc3OC)n2)c(OC)c1,10.9%
6,O=c1c(O)c(-c2ccc(O)cc2O)oc2cc(O)cc(O)c12,26.5% and 25.8%
7,CCCCC[C@H](O)C=C[C@H]1[C@H](O)CC(=O)[C@H]1CCCCCCC(=O)O,33.7%
8,Cc1cccc(CNc2ccnc(-c3cccc(C#N)c3)n2)c1,7.66%
9,CNCCCCCCCCSc1nc(C(C)C)ccc1C(=O)c1cccs1,67.1%
10,CC(=O)OCC(COC(C)=O)OC(C)=O,34.5%
11,CC(C)(Oc1ccc(Cl)cc1)C(=O)O,57.1% and 38%
12,COc1ccccc1CNc1ncncc1-c1ccccc1C(F)(F)F,30.8%
13,Nc1ccc(S(=O)(=O)c2ccc(N)cc2)cc1,41.2%
14,c1ccc(CNc2ncncc2-c2ccc3c(c2)OCO3)cc1,12%
15,c1ccc(-c2ccc(N3CCCC4(CCNCC4)C3)cc2)cc1,-17.3%
16,CCOc1ccc(NC(C)=O)cc1,50.5%
